According to patent US20210094999A1 (Novo Nordisk, published 2021):

Molecular target: T1, solubilised human insulin receptor isoform A (IR-A) (human)
T1 construct: mature; Receptor solubilised from cells and captured on SPA beads by anti-IR mouse antibody 83-7; 'mature' is my reading of 'solubilised human IR-A'; The precursor is processed into alpha and beta chains; also called hIR; human insulin receptor (IR)
Assay: competition SPA on solubilised human IR-A against [125I-TyrA14]-human insulin; affinity relative to human insulin

hIR binding IC50 (% of human insulin): 9 % of human insulin
B1: N{Epsilon-B28}-17-carboxyheptadecanoyl-[GluA14,PheB5,GlyB26,LysB28],des-(B29-B30)-Insulin (ligand)
chain 1: not shown
chain 2: FVNQFLCGSHLVEALYLVCGERGFFGTK
modifications: Lys B28: N-epsilon acylated with C18 diacid, no linker
notes: A14E, B5F, B26G, B28K, desB29-B30
